# ± gives the standard deviation of the averaged measurements. The list shows a part of the results.
# System: PfAP2-EXP AP2 domain (GST-tagged)
# Assay: gcPBM binding intensity (ln(normalized median fluorescence intensity)); higher = stronger DNA binding
# Procedure, shortened: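 In this array assay, P. falciparum DNA-binding domains with a GST tag, expressed in E. coli, were applied for 1 h to primer-extended double-stranded 36-bp intergenic genomic probes and negative controls on an Agilent 4 × 180k array. Bound protein was visualised with Alexa488 anti-GST antibody at 488 nm. Binding intensity is the highest Masliner-normalised natural-log median intensity across replicate spots of either probe orientation.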
row,Sequence,gcPBM binding intensity (ln)
1,CATATGCGTCTTGCCTTGCACACTTTTATGAAAAAA [CACACA_site2055],8.88 ± 0.48
2,TATAACAAGTAATGGTGTACATTATATTATGTAATA [XGTACX_site2761],8.45 ± 0.27
3,TATATATATATATATACATGCATTTCTCATGTACAT [TGCATGCA_site621],10.2 ± 0.33
4,GTCATCATAATCTATTGTACAAAAATTTATACAGAT [XGTACX_site1059],8.66 ± 0.26
5,ATAAATACATTAAAATGTACATAAAAATATTACTGG [XGTACX_site1484],8.42 ± 0.41
6,TACATTAAACGAATAGTGCAAGAAGTATTCGTATAA [GTGCAC_site9939],8.78 ± 0.13
7,TATAAAAATAAGTATACACACAAAATGCGTAACTTT [CACACA_site1295],8.12 ± 0.37
8,AAAAAAAAAAAAAACACACACACACGCAAATACATA [CACACA_site6474],8.68 ± 0.46
9,TCCTTAAATATAAAGGTGCTATGCAGACCTTATGTT [GTGCAC_site9472],8.1 ± 0.25
10,TTATAAATTCAATGTACTACACAAAATGAATTTAAT [XGTACX_site6683],8.43 ± 0.28
11,TACAGACATAGACACACACACACGCATAAAAAAAAA [CACACA_site6820],8.67 ± 0.41
12,ATATAAGTACGGCATGCATGCACATTTTTTTATTCC [TGCATGCA_site101],10.3 ± 0.23
13,TTCCTATAAAAAAACACACACATATAAATATAAATA [CACACA_site7154],8.69 ± 0.4
14,TGTGCTCGCTATTACACACTCATTGGGATAAAATTG [CACACA_site2029],8.61 ± 0.44
15,TACATAAACATTTATACACACATTATATATACATAT [CACACA_site8028],8.6 ± 0.41
16,TGGCTTATTCAGAAATGTACACATATAAATATATAT [XGTACX_site3765],8.6 ± 0.47
17,TGAATAAATAAGATACGTACACACATATACAAAATA [XGTACX_site7758],8.79 ± 0.39
18,TTTCTTTTAATTATCCGTACACAAACAATAAAATAA [XGTACX_site7841],8.57 ± 0.33
19,AAAATAATATATGTATGTACACAATTATTTATAAGT [XGTACX_site7267],8.65 ± 0.47
20,TACTTCTTTTTTATTTATTTTACTTTTTATTCTGTA [CACACA_negctrl_site772],8.98 ± 0.54
21,GCTTATGCTCAATATTGTACTTTTTTTATTTATTCA [XGTACX_site8863],8.98 ± 0.44
22,ATTTAATTTTTTTTTAAACACACATTTTTTTATTTA [CACACA_site8880],8.46 ± 0.31

row,Sequence,gcPBM binding intensity (ln)
1,TTCAATTATATTCTTTGTACGAATCTTCTATAAATT [XGTACX_site4346],8.86 ± 0.48
2,AAAATTATTAAATATGTACACACGTACATTTTATAA [CACACA_site8750],8.12 ± 0.32
3,TATAAATATGTGTATACACACCTGATAAAGGTATAT [CACACA_site7283],8.67 ± 0.44
4,AAATAAATAATAAATAAATAAATAAAATACCAAATA [GTGCAC_negctrl_site620],8.72 ± 0.28
5,ATATATATATATATATGTACATATACACATGTGTGC [XGTACX_site168],10.1 ± 0.33
6,TTATGTAGTATAATGAGTACTAAATATAGATATGTT [XGTACX_site6335],8.51 ± 0.28
7,AATTACTTAAATTATTGTACCCTAATGTTAATTTCA [XGTACX_site825],8.44 ± 0.35
8,AATATTATAAATGATACACACTTAAAATACAGACAC [CACACA_site8868],8.81 ± 0.42
9,TTCATAAAAAATGTAGTGCATTGAATAAAATTACAT [GTGCAC_site9393],8.39 ± 0.13
10,TTTTATATCTACCTTTGTACATATTTATTTTTTTTA [XGTACX_site7872],8.82 ± 0.31
11,TAAATTTTTTTTTTTTGTACACAAAAATATAATATT [XGTACX_site8151],8.18 ± 0.38
12,TTAATTTTGGTAAATGCATGTAATTAAAAATAAAAA [TGCATGCA_site234],9.03 ± 0.51
13,ATATTGAAATTAAAAAAATATATGAACAAATGATGA [CACACA_negctrl_site602],8.88 ± 0.79
14,TATTTTGAAATGGAAAGGATATAGAACTTAAACAAA [CACACA_negctrl_site1530],8.6 ± 0.29
15,AACATACGACAATACGCACACATATAAGTACATATT [CACACA_site8584],8.61 ± 0.29
16,TTTATAAAAAGCATAACACACACATGTCAATATATA [CACACA_site8286],8.67 ± 0.33
17,ATACATTCAAAATATACACACATATATCTATAATAT [CACACA_site6576],8.39 ± 0.4
18,TTTCTTTAGTAGAATGTAAAAAATATAATCTTCTTA [TGCATGCA_negctrl_site298],7.79 ± 0.52
19,TACTTTTTTTTTTTTTTTTTTTTTTTTTCCCTTTTT [CACACA_negctrl_site761],8.22 ± 0.52
20,GTTTATTTATTATAATGTACATTAGTCTGAGGAGTT [XGTACX_site4035],8.96 ± 0.77
21,TTTTATTTATATATAGTGCATATTATTATAAAACAA,8.37 ± 0.24
22,ATATATATATATATATGTACATATGTTAATCTGCAT [XGTACX_site1068],10.2 ± 0.31

row,Sequence,gcPBM binding intensity (ln)
1,CTTTTTTTCCATTAAGCATGCACATTCATATTTACT [TGCATGCA_site170],9.4 ± 0.44
2,TATATATATATAGGTTGTACATTTTGATGTTTACGT [XGTACX_site5503],10 ± 0.18
3,CACACCCACAAAAACACACACAAAGGTGTTCTTATA [CACACA_site1293],9.43 ± 0.64
4,ATAACATTCATATTCACACAAAAATATACTACATAG [CACACA_site4529],8.77 ± 0.49
5,TATATATATATATATACACACATATATATATTTATA [CACACA_site627],10.3 ± 0.18
6,TATTTATTTTTTTGCACACATATTTTACATTTTAAT [CACACA_site3181],9.09 ± 0.28
7,TGTAGTCTGGAGAAACGTACATAGTATCTGGTAACC [XGTACX_site4939],8.71 ± 0.38
8,ATTGAAAATTGTTGCACACATAATAATTAAATATAT [CACACA_site1857],8.37 ± 0.23
9,ATATAAAAAGTGTATCGTACATTTACTTATTTTATA [XGTACX_site6249],8.46 ± 0.3
10,ATAAAAAAAGGACACACACACATATATATATATATA [CACACA_site5662],10.2 ± 0.42
11,TATAAATATGTTCTTACACACACGAATATAAATATG [CACACA_site7537],8.45 ± 0.38
12,TTACATAATATATGTACACACGCAAATACTTATAAT [CACACA_site7995],8.74 ± 0.44
13,TATATTTCTTATTTCTTATTTTGTCATCACCTTTTT [CACACA_negctrl_site1115],8.73 ± 0.42
14,AAAAAAATCACATAAAATACTTTATTTTATATTATA [GTGCAC_negctrl_site372],7.89 ± 0.36
15,AAATTACTTTCACAGTGTACTTGGAAAAAAAAAAGA [XGTACX_site1046],8.34 ± 0.15
16,TTTTTTTTTTTTTTTTGTACGTAATATATGATTAAT [XGTACX_site6876],8.42 ± 0.54
17,CATTTTATCAAAAGTGGTACAACCCTTTCAAAAAAT [XGTACX_site341],8.07 ± 0.28
18,AGATATAATAAATATACACACATATATATATATATA [CACACA_site962],10.1 ± 0.32
19,TGAAAAATGTTGATGTGTACTTATATAGTGTGTTAA [XGTACX_site2100],8.5 ± 0.23
20,TAATTTTATATATGCACACAAAATATGTTCATATAA [CACACA_site4076],8.405 ± 0.035
21,TTTAACATAAATTAAACACACAATATAATACATTAA [CACACA_site1237],8.44 ± 0.42
22,TATATATATAAACACACACACACATATATATATATT [CACACA_site8814],9.02 ± 0.23

row,Sequence,gcPBM binding intensity (ln)
1,ATAGTATAACAGCAATGTACACATATTTGTGTATAT [XGTACX_site7899],8.55 ± 0.32
2,ATATATATTTAAATGTGTACTCATTTATTTTATGTC [XGTACX_site4984],8.7 ± 0.21
3,TGATATTTATAATAAATATTATAATAAAATCAAACA [XGTACX_negctrl_site219],8.28 ± 0.38
4,TTTTTTTTTTTTGTCACACATATATTTGTATTTATA [CACACA_site5234],8.58 ± 0.38
5,ATATATATTTTTATTTGTACATAATTTTTTTTGTGA [XGTACX_site6378],8.66 ± 0.34
6,ATATATGTAATAAATAGTACACACACACATATATAT [XGTACX_site2817],9.04 ± 0.35
7,ATAAAATTGTTTAAATGTACATATGAACAGTCAGTA [XGTACX_site5140],8.71 ± 0.28
8,TTTTTTTTTTTTTGCACACACATATATAGATATATA [CACACA_site7784],8.59 ± 0.38
9,AAAAAAAATTAATAGGGTACATGAAAAGTGGAATAT [XGTACX_site618],9.26 ± 0.45
10,CACATACACATACAAACACACATTAGATATAAATAT [CACACA_site6854],8.59 ± 0.5
11,ATAGAAGAAATATGCACACATACATTGAAATGTTTT [CACACA_site321],8.41 ± 0.34
12,AACAAAATAGGGAACACACACATGTCAATATATAAA [CACACA_site2596],8.79 ± 0.53
13,AAAAAAAAATTAAAAACACACATATAAATAAATATA [CACACA_site6845],8.48 ± 0.48
14,CCATTAAGACACATTGCACACGTGCACCCATAGAAA [CACACA_site4388],9.55 ± 0.83
15,TGAACACGCACAAATACACACAAAAAAAATAAATAA [CACACA_site6257],8.45 ± 0.67
16,TTTTTTTTTAAATAATGTACTTTTCATTATTTAGAT [XGTACX_site1706],8.37 ± 0.46
17,AAAGAAAAAAATAATTGTACATTTATATTTAATTTA [XGTACX_site8003],8.1 ± 0.4
18,TTTTTATTTATTAATACACACACACCCACCCACAAA [CACACA_site7965],9.53 ± 0.65
19,TTTTTTTTGTGTATTTGTACATAATATATATATATA [XGTACX_site7092],9.68 ± 0.19
20,TCGTAATTTTTTTTTATATATTAGGAATTTATAAAA [XGTACX_negctrl_site409],8.11 ± 0.42
21,TAATACCATTGTCATGCATGCACATTATTACTCTAA [TGCATGCA_site160],9.71 ± 0.15
22,ATATTATATTTCTTTTGTACATATTATATAATATAT [XGTACX_site7198],8.86 ± 0.14

# — the supplement of paper PMC11417369
